Patent US20190352358A1, “COMPOUNDS, COMPOSITIONS AND USES THEREOF FOR IMPROVEMENT OF BONE DISORDERS” (ALIZE PHARMA III SAS, priority 2017, published 2019)
Not every detail of the peptide structures is certain; ends, links or a residue may be inferred. Some compounds share one wording; it may come from a single statement. No end group written: not given here.

Tests used:
[1] = tested on: MC-3T3 E1 clone 4 (CL4) osteoblast cells; assay: Osteocalcin expression during in vitro osteoblast differentiation, amino-acid substituted analogs (Example 5); assay type: cell-based; details: test peptide 1 μmon; for Fold increase vs DM ± SE: Table 13; for Fold increase SEQ ID NO: 10 ± SE: Table 12
[2] = tested on: MC-3T3 E1 clone 4 (CL4) osteoblast cells; assay: Osteocalcin expression during in vitro osteoblast differentiation, HBD1 fragments (Example 1); assay type: cell-based; details: for Fold increase vs DM ± SD: Table 8, test peptide 1 μg/mL, 18-21 day interval; for Fold increase vs DM ± SD / Fold increase vs DM ± SE: osteocalcin; for biological activity in osteoblast differentiation bioassay (in words): Tables 8 and 9; for Fold increase vs DM ± SE: Table 9, test peptide 1 μmon, 14-15 day interval

Substance: HLGLEEPKV [compound 55]
- Fold increase vs DM ± SE ([1]; 15 day interval): 4.05 ± 0.50 fold

Substance: HLGLEEPKW [compound 54]
- Fold increase vs DM ± SE ([1]; 15 day interval): 1.54 ± 0.91 fold

Substance: HLGLEEPKY [compound 58]
- Fold increase vs DM ± SE ([1]; 15 day interval): 3.10 ± 0.08 fold

Substance: HLGLEEPLM [compound 102]
- Fold increase vs DM ± SD ([1]; Table 14, 15 day interval): 4.23 ± 0.93 fold

Substance: HLGLEEPLN [compound 104]
- Fold increase vs DM ± SD ([1]; Table 14, 15 day interval): 1.07 ± 0.20 fold

Substance: HLGLEEPLQ [compound 105]
- Fold increase vs DM ± SD ([1]; Table 14, 15 day interval): 0.64 ± 0.22 fold

Substance: HLGLEEPLY [compound 103]
- Fold increase vs DM ± SD ([1]; Table 14, 15 day interval): 2.33 ± 0.63 fold

Substance: HLGLEEPMK [compound 111]
- Fold increase vs DM ± SD ([1]; Table 14, 15 day interval): 4.79 ± 1.64 fold

Substance: HLGLEEPNK [compound 99]
- Fold increase vs DM ± SD ([1]; Table 14, 15 day interval): 1.46 ± 0.80 fold

Substance: HLGLEEPPK [compound 37]
- Fold increase SEQ ID NO: 10 ± SE ([1]; 12 day interval): 1.19 ± 0.2 fold

Substance: HLGLEEPR [compound 112]
- Fold increase vs DM ± SD ([1]; Table 16, 12 day interval): 5.84 ± 1.01 fold

Substance: HLGLEEPSF [compound 100]
- Fold increase vs DM ± SD ([1]; Table 14, 15 day interval): 6.76 ± 1.32 fold

Substance: HLGLEEPSK [compound 38]
- Fold increase SEQ ID NO: 10 ± SE ([1]; 12 day interval): 2.01 ± 0.14 fold

Substance: HLGLEEPSP [compound 61]
- Fold increase vs DM ± SE ([1]; 15 day interval): 3.48 ± 1.28 fold

Substance: HLGLEEPSS [compound 62]
- Fold increase vs DM ± SE ([1]; 15 day interval): 3.83 ± 0.28 fold

Substance: HLGLEEPSV [compound 101]
- Fold increase vs DM ± SD ([1]; Table 14, 15 day interval): 6.32 ± 1.27 fold

Substance: HLGLEEPTK [compound 48]
- Fold increase vs DM ± SE ([1]; 15 day interval): 4.65 ± 1.44 fold

Substance: HLGLEEPVK [compound 46]
- Fold increase vs DM ± SE ([1]; 15 day interval): 3.83 ± 1.75 fold

Substance: HLGLEEPVM [compound 109]
- Fold increase vs DM ± SD ([1]; Table 14, 15 day interval): 6.54 ± 0.57 fold

Substance: HLGLEEPVN [compound 110]
- Fold increase vs DM ± SD ([1]; Table 14, 15 day interval): 2.49 ± 0.93 fold

Substance: HLGLEEPYK [compound 97]
- Fold increase vs DM ± SD ([1]; Table 14, 15 day interval): 6.62 ± 1.92 fold

Substance: HLGLEERKK [compound 31]
- Fold increase SEQ ID NO: 10 ± SE ([1]; 12 day interval): 0.62 fold

Substance: HLGLEESKK [compound 34]
- Fold increase SEQ ID NO: 10 ± SE ([1]; 12 day interval): 1.06 fold

Substance: HLGLEFPKK [compound 27]
- Fold increase SEQ ID NO: 10 ± SE ([1]; 12 day interval): 1.58 ± 0.05 fold

Substance: HLGLEIPKK [compound 28]
- Fold increase SEQ ID NO: 10 ± SE ([1]; 12 day interval): 1.42 ± 0.13 fold

Substance: HLGLEPPKK [compound 29]
- Fold increase SEQ ID NO: 10 ± SE ([1]; 12 day interval): 1.95 ± 0.15 fold

Substance: HLGLERPKK [compound 26]
- Fold increase SEQ ID NO: 10 ± SE ([1]; 12 day interval): 1.11 fold

Substance: HLGLESPKK [compound 30]
- Fold increase SEQ ID NO: 10 ± SE ([1]; 12 day interval): 1.40 ± 0.32 fold

Substance: HLGSEEPKK [compound 96]
- Fold increase vs DM ± SD ([1]; Table 15, 12 day interval): 3.15 ± 1.82 fold

Substance: HLKLEEPKK [compound 95]
- Fold increase vs DM ± SD ([1]; Table 15, 12 day interval): 2.65 ± 0.72 fold

Substance: HLPLEEPKK [compound 91]
- Fold increase vs DM ± SD ([1]; Table 15, 12 day interval): 3.75 ± 1.60 fold

Substance: HTGLEEPKK [compound 94]
- Fold increase vs DM ± SD ([1]; Table 15, 12 day interval): 3.01 ± 1.06 fold

Substance: HVGLEEPKK [compound 90]
- Fold increase vs DM ± SD ([1]; Table 15, 12 day interval): 2.40 ± 1.03 fold

Substance: KHHLGLEEPKK [HBD1 (1-11), KHHLGLEEPKK]
- Fold increase vs DM ± SD [2]: 3.91 ± 0.60 fold
- biological activity in osteoblast differentiation bioassay (in words) [2]: biologically active

Substance: KHHLGLEEPKKL [HBD1 (1-12), KHHLGLEEPKKL]
- Fold increase vs DM ± SD [2]: 4.05 ± 0.95 fold
- biological activity in osteoblast differentiation bioassay (in words) [2]: biologically active

Substance: KHHLGLEEPKKLR [SEQ ID NO: 1, KHHLGLEEPKKLR, reference compound]
- Fold increase vs DM ± SD [2]: 3.28 ± 0.72 fold

Substance: KLGLEEPKK [compound 89]
- Fold increase vs DM ± SD ([1]; Table 15, 12 day interval): 3.56 ± 1.91 fold

Substance: LGLEEP [HBD1 (4-9), LGLEEP]
- Fold increase vs DM ± SE [2]: 1.29 ± 0.23 fold

Substance: LGLEEPK [HBD1 (4-10), LGLEEPK]
- Fold increase vs DM ± SE [2]: 1.83 ± 0.52 fold
- biological activity in osteoblast differentiation bioassay (in words) [2]: biologically active

Substance: LGLEEPKK [HBD1 (4-11), LGLEEPKK]
- Fold increase vs DM ± SE [2]: 2.93 ± 0.54 fold
- biological activity in osteoblast differentiation bioassay (in words) [2]: biologically active

Substance: LGLEEPKKLR [HBD1 (4-13), LGLEEPKKLR]
- Fold increase vs DM ± SD [2]: 3.91 ± 0.88 fold
- biological activity in osteoblast differentiation bioassay (in words) [2]: some preserved biological activity

Substance: NLGLEEPKK [compound 93]
- Fold increase vs DM ± SD ([1]; Table 15, 12 day interval): 3.21 ± 1.56 fold
